Results published in a compilation of properties of binary mixtures (doi:10.1021/je300093r).
Some of these densities may be calculated back from excess volumes.

Test: xn = mol fraction of the nth substance listed
Conditions: 101 kPa

CCCC[n+]1ccccc1.O=S(=O)([N-]S(=O)(=O)C(F)(F)F)C(F)(F)F + CCCC[n+]1ccccc1.F[B-](F)(F)F
mass density [kg/m3]
Conditions	303.15 K	313.15 K	323.15 K	333.15 K	343.15 K	353.15 K
x1 = 0.0442	1223.8	1216.8	1209.8	1202.8	1195.9	1189.1
x1 = 0.1119	1246.1	1238.9	1231.7	1224.6	–	–
x1 = 0.2162	–	1270.5	1263	1255.5	–	1240.7
x1 = 0.3217	1307.2	1299.4	1291.6	1283.8	1276.1	1268.5
x1 = 0.4327	1335	–	1318.8	1310.7	1302.6	–
x1 = 0.5429	1360.1	–	1343.3	1335	1326.7	–
x1 = 0.6523	1382.8	–	1365.5	–	1348.4	1339.9
x1 = 0.7643	–	1395.3	1386.4	1377.6	1368.9	1360.1
x1 = 0.8822	1424.9	–	1406.7	1397.7	–	1379.8
x1 = 0.9467	1435.5	1426.3	1417.1	1408	1398.9	1389.9
x1 = 1	1444	1434.7	–	1416.2	1407.1	–

CCCC[n+]1ccccc1.F[B-](F)(F)F + CCCC[n+]1ccccc1.O=S(=O)([N-]S(=O)(=O)C(F)(F)F)C(F)(F)F
x2 = 0
Conditions	mass density [kg/m3]
313.15 K	1203.5
323.15 K	1196.7
333.15 K	1189.9
343.15 K	1183.2
